# The supplement of paper PMC10126150
# Sequences with one replicate were seen in a single cluster, so their values are uncertain.
# System: ATP
# Assay: switch fluorescence ratio, 500 uM ATP over buffer (Cy3 cluster intensity, sum of 5 cycles each) (fold (ratio)); higher = stronger signal-on switching upon ATP binding; sequences stand for … in TCGTCGGCAGCGTCAGATGTGTATAAGAGACAGTTTTTTTTTTTTTTTTTTTTTTTTT…TC
# Settings: aptamer strand: ATP DNA aptamer (quencher-CACCTGGGGGAGTATTGCGGAGGAAGG + anchor), 100 nM annealed; ATP concentration: 500 uM; one replicate
# Procedure, shortened: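 The quencher-labelled ATP aptamer, at 100 nM, was annealed to Cy3-labelled switching-strand clusters on a modified Illumina MiSeq flow-cell. The clusters were imaged in selection buffer, then after 15 min with 500 uM ATP at 22 °C, and this buffer/ATP cycle ran five times with NaOH stripping and re-annealing between runs. Per-cluster fluorescence ratios, summed target-cycle over summed buffer-cycle Cy3 intensity, were averaged per switch-domain sequence. Clusters outside 100-1000 RFU were excluded.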
# 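Note: ATP exposure 15 min at 22 °C before imaging.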
row,Sequence,switch fluorescence ratio
1,GTTAATCAAG,1.04
2,GTTACAAGCT,1.05
3,GTTACACGCG,0.965
4,GTTACAGACA,1.08
5,GTTACAGGA,0.945
6,GTTACATACG,1.51
7,GTTACATGGC,1
8,GTTACCGCGG,1.01
9,GTTACCGGGC,1.06
10,GTTACGACTT,0.967
11,GTTACTAGCC,0.961
12,GTTACTCAGT,1.06
13,GTTACTTCCG,1.14
14,GTTAGAACAA,0.976
15,GTTAGGGTCC,0.968
16,GTTAGGTATC,0.975
17,GTTAGTCGTT,1.01
18,GTTATAAGCC,0.991
19,GTTATACCGA,1.03
20,GTTATATACA,1.05
21,GTTATCGTTC,0.997
22,GTTATGATTG,0.946
23,GTTATGCTGT,1.07
24,GTTATGTCCT,0.975
25,GTTATTCCGC,1.35
26,GTTATTCGGG,0.972

row,Sequence,switch fluorescence ratio
1,GTTATTGGC,0.952
2,GTTATTGTTG,0.982
3,GTTCAATATC,1.14
4,GTTCACCGGC,1.04
5,GTTCAGCGTT,0.994
6,GTTCATGCCA,1.02
7,GTTCCACACA,1.01
8,GTTCCCCTGG,1.2
9,GTTCCGGCGG,1.02
10,GTTCCGGTGC,1.6
11,GTTCGAAGAA,0.998
12,GTTCGATGCA,1.03
13,GTTCGCTTTA,1.02
14,GTTCGTGGCC,1.02
15,GTTCGTTAAA,1.04
16,GTTCGTTTCT,0.961
17,GTTCTAACCT,1.82
18,GTTCTAATTC,1.04
19,GTTCTACACA,1.05
20,GTTCTAGCTG,0.982
21,GTTCTAGGA,1.02
22,GTTCTATAG,1.06
23,GTTCTCTGAT,0.989
24,GTTCTGGGTC,1.01
25,GTTCTGTGTA,0.975
26,GTTCTTCGGA,0.997

row,Sequence,switch fluorescence ratio
1,GTTCTTTAG,1.01
2,GTTGACCATA,1.04
3,GTTGACGTCC,1.03
4,GTTGAGGACG,1.05
5,GTTGAGGC,0.914
6,GTTGATAGGT,0.942
7,GTTGATATTG,1.07
8,GTTGATTACG,0.973
9,GTTGCGACTG,1.02
10,GTTGCGCACG,1
11,GTTGCGGGCA,1
12,GTTGCTAAGT,0.999
13,GTTGCTATGG,0.999
14,GTTGCTGCAG,0.991
15,GTTGCTTATA,0.969
16,GTTGCTTGC,0.994
17,GTTGGGAAGC,0.955
18,GTTGGGTCTT,0.963
19,GTTGGTCCTG,1.03
20,GTTGGTGGGC,0.883
21,GTTGTATAAA,1.02
22,GTTGTATATA,0.993
23,GTTGTCCGAT,0.977
24,GTTGTGAACG,0.975
25,GTTGTGCT,0.969
26,GTTGTGGT,0.955

row,Sequence,switch fluorescence ratio
1,GTTGTTGTAT,1.01
2,GTTGTTGTTC,0.959
3,GTTGTTTAAA,1.01
4,GTTGTTTAGA,0.965
5,GTTGTTTCGA,0.986
6,GTTTAAACAC,0.98
7,GTTTAAATGC,1.13
8,GTTTAACGAC,0.993
9,GTTTACATGG,0.97
10,GTTTACTATT,0.994
11,GTTTACTCGA,1.01
12,GTTTAGATGG,1
13,GTTTAGCTAT,1.03
14,GTTTAGTTTC,0.982
15,GTTTATACGT,1.03
16,GTTTATAGAC,1.01
17,GTTTATAGCT,1.03
18,GTTTATCTAC,1.02
19,GTTTATCTAG,0.983
20,GTTTCACGCA,1.11
21,GTTTCATCAT,1.01
22,GTTTCCACCT,1.14
23,GTTTCCAGCA,1.02
24,GTTTCCCCGG,1.36
25,GTTTCGGTT,0.955
26,GTTTGAGTCG,1.05

row,Sequence,switch fluorescence ratio
1,GTTTGAGTGC,1.03
2,GTTTGATGCT,0.954
3,GTTTGATGT,0.964
4,GTTTGCAGAT,1.09
5,GTTTGCGGAG,0.987
6,GTTTGCGTGG,0.979
7,GTTTGCTTTA,1.03
8,GTTTGGAGAT,0.981
9,GTTTGGATGA,0.964
10,GTTTGGTCAT,1.07
11,GTTTGTATCA,1.03
12,GTTTGTGAAA,0.939
13,GTTTGTGCGC,0.987
14,GTTTGTTAAA,0.985
15,GTTTTAAATA,1.02
16,GTTTTACTAT,0.963
17,GTTTTAGAAT,0.985
18,GTTTTCAACC,0.997
19,GTTTTCAAGG,0.993
20,GTTTTCCGGT,1.01
21,GTTTTCTGAC,0.991
22,GTTTTGCATG,1
23,GTTTTGGG,0.947
24,GTTTTGTC,1.04
25,GTTTTTAGCT,1.06
26,GTTTTTCGTA,0.976

row,Sequence,switch fluorescence ratio
1,GTTTTTGAAC,0.997
2,TAAAACCGGC,1.11
3,TAAAACGTTT,0.944
4,TAAAAGATCC,0.978
5,TAAACAAGTT,1.08
6,TAAACACATA,1.06
7,TAAACAGCTC,0.961
8,TAAACCTTAA,1.69
9,TAAACGAAG,1.01
10,TAAACGAAGA,1.05
11,TAAACGTGCT,1.01
12,TAAACTACAA,1.02
13,TAAACTCTAA,1.01
14,TAAACTGTAT,1.07
15,TAAACTGTG,1.02
16,TAAACTTCT,1.02
17,TAAACTTTTT,1.04
18,TAAAGAAGAC,1.07
19,TAAAGACCG,0.984
20,TAAAGAGAGG,1.02
21,TAAAGAGATA,0.994
22,TAAAGGATAG,1.02
23,TAAAGGGGTA,1.01
24,TAAAGGGTT,0.966
25,TAAAGGTAAG,0.952
26,TAAAGGTGGA,0.986

row,Sequence,switch fluorescence ratio
1,TAAAGTCGAT,0.985
2,TAAAGTCGCA,0.965
3,TAAATACGTT,0.987
4,TAAATCCGGC,0.968
5,TAAATCGGTT,1
6,TAAATGAGTA,0.972
7,TAAATGATGA,1.01
8,TAAATGCAAT,1.1
9,TAAATGTCT,1.03
10,TAACAAATTC,0.992
11,TAACACTA,1.06
12,TAACAGACGC,1.3
13,TAACAGACGT,1.08
14,TAACAGCTC,0.963
15,TAACAGTTGG,0.994
16,TAACATCGAG,0.971
17,TAACCA,1.04
18,TAACCACTGC,1.11
19,TAACCGGTTG,1.05
20,TAACCGTTGG,1.08
21,TAACCTGTAT,1.15
22,TAACGACGA,1.09
23,TAACGCCCGT,0.994
24,TAACGGCTA,1.05
25,TAACGGGGAA,1.07
26,TAACGTACTA,1.52

row,Sequence,switch fluorescence ratio
1,TAACGTATGA,1.1
2,TAACGTCGTG,0.976
3,TAACGTTGGC,1.15
4,TAACTAGGGT,1.06
5,TAACTCGAAT,1.01
6,TAACTGAGGG,0.987
7,TAACTGGTGT,1.02
8,TAACTGTACA,1.39
9,TAACTTGGGT,1.02
10,TAAGAACATA,0.974
11,TAAGAACCA,1.08
12,TAAGACAATT,1.06
13,TAAGACGCTT,1.07
14,TAAGAGAAAA,1.04
15,TAAGAGGTTC,0.985
16,TAAGAGTAAG,1.01
17,TAAGATGCAT,0.987
18,TAAGCACACG,1.15
19,TAAGCATGTG,1.03
